Results published in the RNAGym collection of RNA variant scans (doi:10.1093/nar/gkz1192).
The source gives no read counts; variants with many changes may rest on few reads.

B1: CPEB3 Ribozyme (parent)
chain: UAACAGGGGGCCACAGCAGAAGCGUUCACGUCGCAGCCCCUGUCAGAUUCUGGUGAAUCUGCGAAUUCUGCUGUAUAUCUC

Variants of: B1
Experiment: self-cleavage, relative activity (ratio to wild type); higher = more cleavage; in vitro, sequencing
Method in brief: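 For each CPEB3 ribozyme variant, relative activity is its cleaved/total read fraction divided by the unmutated ribozyme's. Barcoded error-prone PCR libraries were transcribed by T7 RNA polymerase (5 hours, 37°C) and held in DNase I for 15 min before an EDTA stop, with cleavage occurring throughout. Template-switching reverse transcription and Illumina sequencing were used to read the RNAs. A 5-read minimum applied, and results are the mean of three batches.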

Row | Variant | self-cleavage
1 | G8A A47G A56U C62U U69C | 0.16
2 | G8A U43C G52A U74C | 0.36
3 | G8A G24A U25G U51A G52A U72C | 0.05
4 | G9A A20G G61C C62U A65G U74C | 0.03
5 | G8A U31C C62G U72C | 0.17
6 | G9C A57G U67C | 0.07
7 | G9A U41C U78C | 0.46
8 | G8U U31A U41C U72C | 0.07
9 | G9U A15U G33A U49G U58C | 0.15
10 | G9A U26A A35G | 0.59
11 | G8U A15G U26C A65G U67C | 0.04
12 | G8U A35U U43C A45G U76A | 0.37
13 | G8A A28U U41C U76C A77G | 0.11
14 | G9U A13U A20G U51C A56U | 0.07
15 | G9A U60A A75G | 0.12
16 | G8A G61A C62G A65G | 0.06
17 | G9C A18C U41C U43C A64U U76A | 0.39
18 | G8A A20G G33A U49A U54G C68U | 0.04
19 | G8C A28G G30A U31A U67C U69G U76C | 0.04
20 | G9A A18G A28U U41G U69G | 0.04
21 | G9A U25C U48C U51A | 0.14
22 | G9A A21G C32U C39U A45U | 0.04
23 | G9A C23U U49C C68U | 0.22
24 | G8A C11A U67C | 0.05

Row | Variant | self-cleavage
25 | G8U U41C A56G U60C | 0.06
26 | G8U A15G C23U G30A G36U G55A | 0.04
27 | G8U U60A U72A | 0.1
28 | G8A A20U U31C U43C U78C | 0.05
29 | G8A A18U A57G A65G U74A U80C | 0.04
30 | G8A A45G U49C A64U | 0.15
31 | G9A U26A U51C G63C | 0.07
32 | G8C A15G C29A A57G | 0.19
33 | G8A G10U A28U U67C | 0.04
34 | G9A U43C U51A U78C | 0.07
35 | G9C U51A A64U U78C | 0
36 | G8U A18G U69A U72C | 0.05
37 | G9A A20G U25C | 0.06
38 | G8U A28G U41C | 0.13
39 | G8U A13G A15U G63A | 0.19
40 | G8U A13G A15U G63U | 0.38
41 | G8U A13U U25C A56G G61U U72C | 0.06
42 | G8A U26A A56U U58C | 0.06
43 | G9A U31A G55U U69C | 0.12
44 | G8U A21G A56G U67C U72A | 0.07
45 | G9A U41C A56G | 0.09
46 | G9C A20G U60A | 0.38
47 | G8A G10U A15U G16C U31C A35G A65G | 0.17
48 | G8U A20U G30A A45U U54C | 0.3

Row | Variant | self-cleavage
49 | G8A U54C U67C U80C | 0.11
50 | G8A U41C U54C U69A | 0.07
51 | G8A A21G U25C A35G A56G U60A | 0.06
52 | G8A U25G U49C U78C | 0.05
53 | G8A U26C G36A U60C | 0.12
54 | G8A U54C A57G U67C | 0.09
55 | G8A A18U U48A | 0.25
56 | G8A C40A U72A | 0.1
57 | G8C A13G U25C G52U U66A G73U U78C | 0.06
58 | G8C U43C U60A U66A | 0.24
59 | G8U G70U U76A | 0.14
60 | G9A A20U A47U U67C | 0.09
61 | G8U A28G U51A U60C | 0.1
62 | G8A A57G U80C | 0.07
63 | G9U A21G G61A | 0.19
64 | G9A A13U A47U U72A U74A U78C | 0.04
65 | G9A C23A A28G U51A U58C | 0.04
66 | G9U A20U A64G U78A | 0.07
67 | G8A A15U U31C A47G G61A C62G U78C | 0.08
68 | G8A C40A A77U | 0.22
69 | G9A C29U U78C | 0.41
70 | G9A A47G U67A | 0.39
71 | G9A A35G U67C | 0.35
72 | G9A A18G A20G U31A A56U | 0.05

Row | Variant | self-cleavage
73 | G9C C38U U51C U76C | 0.09
74 | G8C C14A A28G C38G A45G U51A A64U | 0.03
75 | G8U A18G U60C | 0.19
76 | G9A G10C A15U A57G U80A | 0.13
77 | G9A C32G A35U U41C | 0.13
78 | G9A U49A G52C | 0.11
79 | G8U A21G U26C U51C | 0.04
80 | G9A A18G A35G | 0.14
81 | G8C A21U G63U U66C | 0.17
82 | G8U U41A U43A A45G C50A U54A | 0.04
83 | G8A G36A C39U U48A A65G | 0.05
84 | G8A G33U C38A U41C U49C A65G U67C | 0.02
85 | G9U A15U U58C | 0.07
86 | G8A C12U C14U A45G | 0.14
87 | G8A A18G U31C C40U C44U A57G U67C | 0.03
88 | G9U A15U U31C A45C U51C U78C | 0.17
89 | G9A G24A C32G U72C U76A | 0.03
90 | G8U C23A U43C A45G | 0.06
91 | G8U A21U U26C | 0.05
92 | G8U A18C U26A U41C U51C U69C | 0.05
93 | G8A A18U U54C A77U | 0.04
94 | G8U G16C C29U C34U U58C G70A | 0.03
95 | G8U A20G A21G U26G U80C | 0.05
96 | G8U U31A U51A U67A | 0.12

Row | Variant | self-cleavage
97 | G9A A18G U25A A47G U54C U58C | 0.05
98 | G8A U48C U49C | 0.06
99 | G9U A20G G30U | 0.19
100 | G8A G16U A28G U31C U69C | 0.07
101 | G8A G10A U60G C68U | 0.04
102 | G8A G53A A64U U72C U74C | 0.07
103 | G8A U41A A57U | 0.36
104 | G8U A13G A20G U25C G52U | 0.04
105 | G8A G9A A15U G24A | 0.22
106 | G8A U67A U72C | 0.07
107 | G9A U25C A28C | 0.14
108 | G8A U31C U51A U58C A64C U74G | 0.04
109 | G8U A13G U25A | 0.21
110 | G8C U60C U76A U78C | 0.07
111 | G8A G10A A15U C29U U60C | 0.05
112 | G8A C11U A20U A47G U51A | 0.05
113 | G9A A20G A35G U43C A45U A57G U69A | 0.15
114 | G9A C37U U49A U54C U74C | 0.03
115 | G9A A15C U58C | 0.11
116 | G8U A13U U41A A77U | 0.27
117 | G8A A35G C40U A45U U72A A77U U78C | 0.04
118 | G9A U43C A64U U72A | 0.14
119 | G9C A35G U74C | 0.57
120 | G9A A13U A20U C29U A45U | 0.05

Row | Variant | self-cleavage
121 | G9U A20U C23U A65U U66C U72C | 0.04
122 | G9C U26C A35G A56U U69A | 0.07
123 | G8U C44G A65U U66C | 0.05
124 | G8C U51C U74A U78C | 0.09
125 | G9U A15G A20G U41A A56U C68G | 0.05
126 | G8C A15U A20G U58C U80G | 0.13
127 | G8A A21U U25C A35G U41A | 0.05
128 | G9U A21G A35G U69A | 0.07
129 | G8A G24C A65G U80C | 0.11
130 | G9A G19U A21G U69C | 0.04
131 | G8A A18U G19A C40A | 0.05
132 | G9A U43C U72C U78C | 0.34
133 | G8A A20G G30U A47G G55A U60C | 0.06
134 | G9A A18G C34G | 0.06
135 | G9A C12A U60A | 0.06
136 | G9A A13G U43C A45G U67C U72C | 0.05
137 | G8A A28G U48C U51C U72C U78C | 0.05
138 | G8U G16U G24C | 0.07
139 | G8U A21U U31C U60A U74A | 0.06
140 | G8C U26C A35U A64G | 0.41
141 | G8U A20G U26A C38U U41C U49C | 0.04
142 | G8C A21G A28G | 0.31
143 | G9A A13U A20U U49C | 0.13
144 | G8U A35U A45C A57G | 0.13

Row | Variant | self-cleavage
145 | G9C U60C U72C U78A | 0.17
146 | G9U A21C G30A U43C | 0.1
147 | G8A U25A U31C A35U U74C | 0.04
148 | G9U A18U A28G A56U | 0.14
149 | G8U A20G U25C G33U A65C | 0.08
150 | G9A G24A A56U | 0.1
151 | G9A A18U A28G | 0.07
152 | G8A A21G A35G G55C | 0.08
153 | G9A A20G U25C U74C U78C | 0.04
154 | G9U A21G U31A U66C | 0.37
155 | G8A A15U U48C U51A | 0.07
156 | G9C C39U U43C A56G | 0.14
157 | G8A U41C U51A U66C | 0.32
158 | G9A C14U A47G U49A A64U | 0.04
159 | G8A G42A A45G U60C C79U | 0.19
160 | G9C U49C A57G U60C U72A | 0.17
161 | G8U U41G U43C U72A | 0.2
162 | G9A C37G U80A | 0.29
163 | G9A A45G A56U A65G U72A | 0.06
164 | G8C G24C U41C | 0.26
165 | G8U U49A U60C | 0.11
166 | G9A A64G U69A | 0.36
167 | G8U G33A C38A U43C A47G U69A | 0.07
